# The other results are listed elsewhere or left out.
# B1: Siglec-9 (Homo sapiens), Q9Y336 (protein)
# chain: MLLLLLPLLWGRERAEGQTSKLLTMQSSVTVQEGLCVHVPCSFSYPSHGWIYPGPVVHGYWFREGANTDQDAPVATNNPARAVWEETRDRFHLLGDPHTKNCTLSIRDARRSDAGRYFFKMEKGSIKWNYKHHRLSVNVTALTHRPNILIPGTLESGCPQNLTCSVPWACEQGTPPMISWIGTSVSPLDPSTTRSSVLTLIPQPQDHGTSLTCQVTFPGASVTTNKTVHLNVSYPPQNLTMTVFQGDGTVSTVLGNGSSLSLPEGQSLRLVCAVDAVDSNPPARLSLSWRGLTLCPSQPSNPGVLELPWVHLRDAAEFTCRAQNPLGSQQVYLNVSLQSKATSGVTQGVVGGAGATALVFLSFCVIFVVVRSCRKKSARPAAGVGDTGIEDANAVRGSASQGPLTEPWAEDSPPDQPPPASARSSVGEGELQYASLSFQMVKPWDSRGQEATDTEYSEIKIHR
# Legend:
# Assay in all cases: glycan array binding signal (z-score within array); higher = stronger binding
# Conditions in all cases: glycan notation: IUPAC condensed, linker removed; mutation: R120K
# [1] = biological target: Gal(b1-3)GlcNAc(b1-6)GalNAc
# Method in brief: (§1)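 Negative Z-scores can be read as non-binding. The Z-score is calculated within each array and then averaged across arrays of one protein sequence at different concentrations or buffers and across linkers. Arrays, 3228 in all, were curated from the Consortium for Functional Glycomics database and kept only where the protein sequence was available.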
# [2] = biological target: Gal(b1-3)GlcNAc(b1-6)[Gal(b1-3)]GalNAc
# Method in brief: as §1
# [3] = biological target: Gal(b1-3)GlcNAc6S
# Method in brief: as §1
# [4] = biological target: Gal(b1-3)[Fuc(a1-4)]GlcNAc
# Method in brief: as §1
# [5] = biological target: Gal(b1-3)[Fuc(a1-4)]GlcNAc(b1-2)Man
# Method in brief: as §1
# [6] = biological target: Gal(b1-3)[Fuc(a1-4)]GlcNAc(b1-2)Man(a1-3)[Gal(b1-3)[Fuc(a1-4)]GlcNAc(b1-2)Man(a1-6)]Man(b1-4)GlcNAc(b1-4)[Fuc(a1-6)]GlcNAc
# Method in brief: as §1
# [7] = biological target: Gal(b1-3)[Fuc(a1-4)]GlcNAc(b1-3)Gal(b1-3)[Fuc(a1-4)]GlcNAc
# Method in brief: as §1
# [8] = biological target: Gal(b1-3)[Fuc(a1-4)]GlcNAc(b1-3)Gal(b1-4)[Fuc(a1-3)]GlcNAc
# Method in brief: as §1
# [9] = biological target: Gal(b1-3)[Fuc(a1-4)]GlcNAc(b1-6)GalNAc
# Method in brief: as §1
# [10] = biological target: Gal(b1-3)[GlcNAc(b1-6)]GalNAc
# Method in brief: as §1
# [11] = biological target: Gal(b1-3)[Neu5Ac(a2-6)]GalNAc
# Method in brief: as §1
# [12] = biological target: Gal(b1-3)[Neu5Ac(a2-6)]GlcNAc(b1-4)Gal(b1-4)Glc
# Method in brief: as §1
# [13] = biological target: Gal(b1-3)[Neu5Ac(b2-6)]GalNAc
# Method in brief: as §1
# [14] = biological target: Gal(b1-4)Gal
# Method in brief: as §1
# [15] = biological target: Gal(b1-4)GalNAc(a1-3)[Fuc(a1-2)]Gal(b1-4)GlcNAc
# Method in brief: as §1
# [16] = biological target: Gal(b1-4)GalNAc(b1-3)[Fuc(a1-2)]Gal(b1-4)GlcNAc
# Method in brief: as §1
# [17] = biological target: Gal(b1-4)Glc
# Method in brief: as §1
# [18] = biological target: Gal(b1-4)Glc6S
# Method in brief: as §1
# [19] = biological target: Gal(b1-4)GlcNAc
# Method in brief: as §1
# [20] = biological target: Gal(b1-4)GlcNAc(a1-6)Gal(b1-4)GlcNAc
# Method in brief: as §1
# [21] = biological target: Gal(b1-4)GlcNAc(b1-2)Man
# Method in brief: as §1
# [22] = biological target: Gal(b1-4)GlcNAc(b1-2)Man(a1-3)Man(b1-4)GlcNAc(b1-4)GlcNAc
# Method in brief: as §1
# [23] = biological target: Gal(b1-4)GlcNAc(b1-2)Man(a1-3)[Gal(b1-4)GlcNAc(b1-2)Man(a1-6)]Man(b1-4)GlcNAc(b1-4)GlcNAc
# Method in brief: as §1
# [24] = biological target: Gal(b1-4)GlcNAc(b1-2)Man(a1-3)[Gal(b1-4)GlcNAc(b1-2)Man(a1-6)]Man(b1-4)GlcNAc(b1-4)[Fuc(a1-6)]GlcNAc
# Method in brief: as §1
# [25] = biological target: Gal(b1-4)GlcNAc(b1-2)Man(a1-3)[Gal(b1-4)GlcNAc(b1-2)Man(a1-6)][Gal(b1-4)GlcNAc(b1-4)]Man(b1-4)GlcNAc(b1-4)[Fuc(a1-6)]GlcNAc
# Method in brief: as §1
# [26] = biological target: Gal(b1-4)GlcNAc(b1-2)Man(a1-3)[Gal(b1-4)GlcNAc(b1-2)Man(a1-6)][GlcNAc(b1-4)]Man(b1-4)GlcNAc(b1-4)[Fuc(a1-6)]GlcNAc
# Method in brief: as §1
# [27] = biological target: Gal(b1-4)GlcNAc(b1-2)Man(a1-3)[GlcNAc(b1-2)Man(a1-6)]Man(b1-4)GlcNAc(b1-4)GlcNAc
# Method in brief: as §1
# [28] = biological target: Gal(b1-4)GlcNAc(b1-2)Man(a1-3)[GlcNAc(b1-4)][Gal(b1-4)GlcNAc(b1-2)Man(a1-6)]Man(b1-4)GlcNAc(b1-4)GlcNAc
# Method in brief: as §1
# [29] = biological target: Gal(b1-4)GlcNAc(b1-2)Man(a1-3)[Man(a1-6)]Man(b1-4)GlcNAc(b1-4)GlcNAc
# Method in brief: as §1
# [30] = biological target: Gal(b1-4)GlcNAc(b1-2)Man(a1-6)Man(b1-4)GlcNAc(b1-4)GlcNAc
# Method in brief: as §1
# [31] = biological target: Gal(b1-4)GlcNAc(b1-2)Man(a1-6)[GlcNAc(b1-2)Man(a1-3)]Man(b1-4)GlcNAc(b1-4)GlcNAc
# Method in brief: as §1
# [32] = biological target: Gal(b1-4)GlcNAc(b1-2)Man(a1-6)[Man(a1-3)]Man(b1-4)GlcNAc(b1-4)GlcNAc
# Method in brief: as §1
# [33] = biological target: Gal(b1-4)GlcNAc(b1-2)[Gal(b1-4)GlcNAc(b1-4)]Man(a1-3)[Gal(b1-4)GlcNAc(b1-2)Man(a1-6)]Man(b1-4)GlcNAc(b1-4)GlcNAc
# Method in brief: as §1
# [34] = biological target: Gal(b1-4)GlcNAc(b1-2)[Gal(b1-4)GlcNAc(b1-4)]Man(a1-3)[Gal(b1-4)GlcNAc(b1-2)[Gal(b1-4)GlcNAc(b1-6)]Man(a1-6)]Man(b1-4)GlcNAc(b1-4)GlcNAc
# Method in brief: as §1
# [35] = biological target: Gal(b1-4)GlcNAc(b1-2)[Gal(b1-4)GlcNAc(b1-4)]Man(a1-3)[GlcNAc(b1-4)][Gal(b1-4)GlcNAc(b1-2)Man(a1-6)]Man(b1-4)GlcNAc(b1-4)GlcNAc
# Method in brief: as §1
# [36] = biological target: Gal(b1-4)GlcNAc(b1-2)[Gal(b1-4)GlcNAc(b1-4)]Man(a1-3)[GlcNAc(b1-4)][Gal(b1-4)GlcNAc(b1-2)[Gal(b1-4)GlcNAc(b1-6)]Man(a1-6)]Man(b1-4)GlcNAc(b1-4)GlcNAc
# Method in brief: as §1
# [37] = biological target: Gal(b1-4)GlcNAc(b1-2)[Gal(b1-4)GlcNAc(b1-6)]Man(a1-6)[Gal(b1-4)GlcNAc(b1-2)Man(a1-3)]Man(b1-4)GlcNAc(b1-4)GlcNAc
# Method in brief: as §1
binder,measurement,setting,value
B1,glycan array binding signal (z-score),[1],-0.275
same,glycan array binding signal (z-score),[2],-0.035
same,glycan array binding signal (z-score),[3],-0.251
same,glycan array binding signal (z-score),[4],-0.34
same,glycan array binding signal (z-score),[5],1.24
same,glycan array binding signal (z-score),[6],0.813
same,glycan array binding signal (z-score),[7],-0.372
same,glycan array binding signal (z-score),[8],-0.46
same,glycan array binding signal (z-score),[9],0.243
same,glycan array binding signal (z-score),[10],-0.458
same,glycan array binding signal (z-score),[11],-0.13
same,glycan array binding signal (z-score),[12],0.069
same,glycan array binding signal (z-score),[13],-0.221
same,glycan array binding signal (z-score),[14],1.95
same,glycan array binding signal (z-score),[15],-0.311
same,glycan array binding signal (z-score),[16],-0.268
same,glycan array binding signal (z-score),[17],-0.292
same,glycan array binding signal (z-score),[18],0.05
same,glycan array binding signal (z-score),[19],-0.39
same,glycan array binding signal (z-score),[20],-0.474
same,glycan array binding signal (z-score),[21],0.289
same,glycan array binding signal (z-score),[22],-0.148
same,glycan array binding signal (z-score),[23],-0.076
same,glycan array binding signal (z-score),[24],-0.105
same,glycan array binding signal (z-score),[25],-0.263
same,glycan array binding signal (z-score),[26],-0.628
same,glycan array binding signal (z-score),[27],-0.682
same,glycan array binding signal (z-score),[28],-0.087
same,glycan array binding signal (z-score),[29],0.057
same,glycan array binding signal (z-score),[30],-0.062
same,glycan array binding signal (z-score),[31],-0.317
same,glycan array binding signal (z-score),[32],0.025
same,glycan array binding signal (z-score),[33],-0.619
same,glycan array binding signal (z-score),[34],0.179
same,glycan array binding signal (z-score),[35],-0.275
same,glycan array binding signal (z-score),[36],0.036
same,glycan array binding signal (z-score),[37],-0.258

# Source: the supplement of paper PMC8728848
